Data as given in the supplement of paper PMC11417369.
The other results are listed elsewhere or left out.

The sequences below were run on PfHDP1 homeodomain (GST-tagged) (assay: gcPBM binding intensity (ln(normalized median fluorescence intensity)); higher = stronger DNA binding).
Summary of the method: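 Binding intensity is defined as the maximum Masliner-normalised natural-log median intensity across replicate spots for either probe orientation. It was measured on an Agilent 4 × 180k array of primer-extended double-stranded 36-bp intergenic genomic probes and negative controls, to which GST-tagged P. falciparum DNA-binding domains made in E. coli were applied for 1 h in 1× PBS with 1% milk, 0.2 mg/ml BSA, 0.5% salmon testes DNA and 0.03% Triton X-100. Detection was by Alexa488 anti-GST antibody and scanning at 488 nm.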

Sequence | gcPBM binding intensity (ln)
TTTTATTTATTTTATTGTACATATATAAAACTATGA [XGTACX_site3476] | 6.6
AATATATTATATATATGTACATATGTGTATACATTT [XGTACX_site937] | 6.94
ATTACATATTGATAAGTGCAAGTGTGAGAAATGTTA | 8.16
TCTATATAGATTTGCACACATAAAAATGCTTATATA [CACACA_site2389] | 10.1
ATATATATGTGTAAAAGTACATATATTTTGAAATAT [XGTACX_site4024] | 6.46
TTTTAATAAAAGCCCATGCACACCTTAGAAAGTTTT [CACACA_site346] | 7.71
TTTTTCATTTTTAAAATAATTATAATATTATACATA [XGTACX_negctrl_site43] | 6.62
TAAATCAGCCATAACACACATACATATATACATAAA [CACACA_site396] | 6.48
TAAATATATATTATATGTACTTATATATATATATAT [XGTACX_site4448] | 8.83
AGCAAATAAATAAATAAATAAATAAATATATATATA [TGCATGCA_negctrl_site40] | 8.79
ATAATTAACAAATACACACACACACGCCCACAAAAA [CACACA_site6389] | 7.17
TATTGGAAAATTAGAAGTACTTTCATATATTAGACT [XGTACX_site4503] | 6.18
TTTTTATTATTCCATAGTACAGAAAAAATGATATAT [XGTACX_site3431] | 6.54
ATTCTTTATTATTCGCCACACACATATATATATATA [CACACA_site9009] | 9.18
TATAATGAGAAGATATAATATATAGGGGGTAATTCT [GTGCAC_negctrl_site228] | 6.52
TTTTTTTCATAAGAAGCACACAAAAAATGATAGAGA [CACACA_site8401] | 6.87
ATATATATATATATATGTACTTATTTGTATAAATAC [XGTACX_site8031] | 9.24
ATACCTACATACATACGTACATATATATATATAATG [XGTACX_site234] | 7.33
TAGATTTTTATGCGTGCACACATTTAAAAAAAAAAC [CACACA_site3421] | 10.3

Sequence | gcPBM binding intensity (ln)
AAATATAATAACATAACACACACATGTATTTATAGG [CACACA_site8009] | 6.49
TTTTAATAAATTCAAAACATAAAAAGGAAAAAAAAA [XGTACX_negctrl_site471] | 5.98
TAATAAATAAATGACACACACACACGCAAAAAAAAA [CACACA_site7275] | 6.65
AGGATATAATACCATACACACATTTATAAAATAACA [CACACA_site1930] | 6.63
ATAATATGAAAACACACACACACACCCAAAAAAAAA [CACACA_site2011] | 6.78
ATATATATTATATATATATATATATATATATATATA [CACACA_negctrl_site493] | 9.32
CACATTAATTTTTGGGTGCACTTGGGAAATTTTGGT | 9.07
AACAAATACGAACACACACACACACTAAAAAAAAAA [CACACA_site6386] | 6.85
TGTAATCAAAAAAATAGTACATAAATTGTGTATACT [XGTACX_site5908] | 6.57
ATATAGAATAAAACTATACACACCTATATTTAAACA [CACACA_site1902] | 6.54
TGTAGTCTGGAGAAAAGTACACAGTATCTGGTAACC [XGTACX_site2033] | 5.91
CTTGTATAGAAACACACACACACTTTCTTTTTTTAA [CACACA_site1964] | 6.76
TATATTAATAAAGGTACTACACGGAAATGGAAATAT [XGTACX_site7760] | 7.24
ATATAAAAAAATAATAAATAAATAAAAAGATTTCTT [XGTACX_negctrl_site110] | 6.09
ATATTTTCCCTTGTTTTACACACGTGCTGATATGAG [CACACA_site8672] | 7.52
AATTTGAAATATGTGGTGCAGTTATATAATATGTTT [GTGCAC_site9885] | 7.62
TTAAGTCCGTTAACAGTGCATTTTTTCTTTTATGTA [GTGCAC_site9867] | 7.28
AGAAAAGAGAAAAGTAGTACAAAGGATCATTTAAAA [XGTACX_site5294] | 6.57
ATTAAAAAAATATAAACACACAAAAAAAAAATATAC [CACACA_site1100] | 7.06

Sequence | gcPBM binding intensity (ln)
TAATGAAAAAATAAAAGAATAAATAAATAAATAAAT [TGCATGCA_negctrl_site130] | 6.51
TATAAAAAGCATAACACACACATGTCAATATATATA [CACACA_site1111] | 6.92
AAAAAAAAAATATGTACACACATATATAATACATAA [CACACA_site1639] | 6.44
ATAGAACAGAAAAGGCGTACAATAATATGTAAACAA [XGTACX_site2828] | 6.47
TAAAAATCCACAAGCACACAAATGTACATATATATA [CACACA_site2462] | 6.61
CATACATAGATATATACACACATACCTATAAATACA [CACACA_site6513] | 6.95
TATATATGTGTTATATACCCTTTTTTATATATTAAT [XGTACX_negctrl_site313] | 6.62
ATTACATGATATATCACACACACATATAGATATATA [CACACA_site7352] | 6.98
GCTATTAATTTATAAGCACACAATATAAATATATAT [CACACA_site2251] | 6.31
TACGTCTTTTTTTTGGTGCATAATTTTTTTGTACAA | 10.4
TACACGTTCTACATTTGTACTTAATTTATACATAAG [XGTACX_site1579] | 6.86
AATTTTGTTAAAAGGACACACAATTCAATATATTAA [CACACA_site647] | 6.49
ATTTATTTAAACAAATCACACACAAATATATATACA [CACACA_site8622] | 6.75
TATATTAAAATATTCACACACTAACGTAAATCATTG [CACACA_site5520] | 6.6
TATGTCGACATTTAAAGTACAAAAAAAAAAAAAAAA [XGTACX_site8985] | 6.36
ATATTCATTAACCACACACACAAAAAAAATAAAATT [CACACA_site3801] | 6.99
ATATATGTATTTAATACACACAAAACTTTCATTCCA [CACACA_site3531] | 6.67
ATACATATATGCTTCTGTACACATAATTTATAAAAA [XGTACX_site7000] | 7.09
TTTTTAGAAAGACATGCATGTAATAAAAATAAATAA [TGCATGCA_site685] | 6.69
